The source of these data is PMC4336329 (PLoS ONE, 2015).

SMILES strings stand for the structures. Out of some 310,000 compounds screened, about 2,200 (0.71%) showed an effect of 50% or more. The effect is printed as a negative number. The list shows a part of the results.

For the assay, the target named is human ether-à-go-go-related gene (hERG) potassium channel (human, UniProt Q12809). The experiment in a line: primary screen, population patch clamp on CHO cells stably expressing hERG.
human ether-à-go-go-related gene (hERG) potassium channel, sequence (Q12809 whole entry, looked up): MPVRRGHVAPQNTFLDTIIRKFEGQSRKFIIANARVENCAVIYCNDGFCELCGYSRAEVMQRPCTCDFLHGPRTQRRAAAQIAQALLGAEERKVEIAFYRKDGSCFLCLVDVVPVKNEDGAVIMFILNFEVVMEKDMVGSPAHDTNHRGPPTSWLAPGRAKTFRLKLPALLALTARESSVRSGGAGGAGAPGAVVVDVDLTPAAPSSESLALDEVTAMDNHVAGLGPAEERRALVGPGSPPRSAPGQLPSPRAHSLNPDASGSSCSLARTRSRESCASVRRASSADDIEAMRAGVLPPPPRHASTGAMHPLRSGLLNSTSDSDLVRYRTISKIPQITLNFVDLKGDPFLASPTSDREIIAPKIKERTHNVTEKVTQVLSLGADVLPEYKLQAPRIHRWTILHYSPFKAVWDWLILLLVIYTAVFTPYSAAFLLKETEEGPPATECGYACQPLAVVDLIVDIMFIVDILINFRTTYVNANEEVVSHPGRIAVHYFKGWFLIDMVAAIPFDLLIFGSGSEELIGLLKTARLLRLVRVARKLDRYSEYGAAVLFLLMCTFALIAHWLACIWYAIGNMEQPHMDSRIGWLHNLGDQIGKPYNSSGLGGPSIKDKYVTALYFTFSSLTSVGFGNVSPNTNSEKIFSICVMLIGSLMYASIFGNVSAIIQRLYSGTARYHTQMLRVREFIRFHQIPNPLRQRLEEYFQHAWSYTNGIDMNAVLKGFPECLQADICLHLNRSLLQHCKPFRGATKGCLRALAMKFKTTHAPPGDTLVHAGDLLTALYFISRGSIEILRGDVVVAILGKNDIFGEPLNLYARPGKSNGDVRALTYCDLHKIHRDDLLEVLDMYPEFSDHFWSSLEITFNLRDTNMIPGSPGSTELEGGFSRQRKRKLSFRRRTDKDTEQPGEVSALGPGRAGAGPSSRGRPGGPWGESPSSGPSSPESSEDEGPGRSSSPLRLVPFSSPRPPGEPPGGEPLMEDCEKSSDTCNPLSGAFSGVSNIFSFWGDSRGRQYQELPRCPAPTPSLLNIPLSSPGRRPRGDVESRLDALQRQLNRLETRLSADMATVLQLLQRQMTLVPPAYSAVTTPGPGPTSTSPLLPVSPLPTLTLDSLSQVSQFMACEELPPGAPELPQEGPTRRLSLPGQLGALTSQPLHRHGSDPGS
`CN1C(=O)CS(=O)c2ccc(C(=O)NCCC3=CCCCC3)cc21` (centres unmarked): the “hERG current change (%, negative = inhibition) at 1uM” value worked out at 8.43%.
Under `Cc1ccc(NC(=O)CSc2sc3c(O)cc(=O)[nH]c3c2C#N)cc1C` stands 0.874%; under `CC1(C)Cc2c(sc(/N=C/N3CCOCC3)c2C#N)C(C)(C)N1`, 0.756%.
Under `COc1ccccc1NC(=O)Nc1nc(CC(=O)Nc2cccc(F)c2)cs1` stands 12.1%; under `CCN(CC)CCNC(=O)CCN1N=C(c2ccccc2)CCC1=O`, 17.2%.
For the compound `Cc1ccc(C)c(NC(=O)C2C3C=CC(O3)C2C(=O)O)c1` (centres unmarked), the “hERG current change (%, negative = inhibition) at 1uM” value is on record as 17.4%.
Under `Cc1ccnc(NS(=O)(=O)c2ccc(NC(=O)C3CC=CCC3C(=O)O)cc2)n1` (centres unmarked) stands 6.12%; under `S=C(Nc1ccc(Cl)cc1)NC1CC2CCCC(C1)N2C1CCCC1` (centres unmarked), -29%.
Turning to `c1ccc(CN2CCOCCOCCOCC2)cc1`, the “hERG current change (%, negative = inhibition) at 1uM” value was 11.3%.
Under `CCN(CC)S(=O)(=O)c1cc(Cl)ccc1OC` stands 5.73%; under `CC(C)C(NS(=O)(=O)c1cccs1)C(=O)NCc1ccccc1` (centres unmarked), 17.6%.
Under `COCCCNC(=S)NC1CCCCC1` stands 1.65%; under `COC(=O)c1cnn(-c2nc3c(C)cccc3s2)c1C`, -9.2%.
Under `O=C(c1ccc2nc(-c3ccccc3)c(-c3ccccc3)nc2c1)N1CCCCC1` stands 3.53%.
As to `CC(C)CSc1nnc2c(n1)[nH]c1ccccc12`, the “hERG current change (%, negative = inhibition) at 1uM” value amounted to 6.6%.
Next, `O=C(NC1CCS(=O)(=O)C1)c1cccc(S(=O)(=O)N2CCCCCC2)c1` (centres unmarked): 7.97%.
Regarding `Cn1c(N)c(C(=O)COC(=O)c2ccc(OC(F)F)cc2)c(=O)n(C)c1=O`, the “hERG current change (%, negative = inhibition) at 1uM” value was found to be 10.9%.
Next, `Cc1[nH]c2c(C(=O)N3CCCC(CCC(=O)NCc4ccccc4F)C3)cccc2c1C` (centres unmarked): 5.62%.
Under `CON(C)c1nc(NCC(C)C)nc(OCC#N)n1` stands 1.5%; under `O=C(O)c1ccc(CSc2nnc(-c3ccccc3)n2-c2ccccc2)cc1`, 13.1%; under `Cc1ccc(-n2c(-c3ccccc3)nnc2-c2cccs2)cc1`, 17.5%.
Next, `Cc1ccc(N2C(=O)CSC2c2ccccn2)cc1Cl` (centres unmarked): 13.8%; `COc1ccc(C(C)=O)cc1CSc1nncn1-c1ccccc1`: -5.26%.
`O=C(NCCc1ccc(Cl)cc1)C1CCN(C(=O)c2ccc(F)cc2)CC1`: the “hERG current change (%, negative = inhibition) at 1uM” value is -14.3%.
Under `COc1ccc(-c2noc(N3CCC(C(=O)Nc4cc(OC)c(OC)c(OC)c4)CC3)n2)cc1` stands 7.22%; under `Cc1nn(-c2ccccc2)c(Cl)c1/C=N/NC(=O)c1[nH]ncc1Br`, 10.4%.
Under `C=CCOC(=O)C1=C(C)NC2(O)c3ccccc3C(=O)C12O` (centres unmarked) stands 5.81%.
Under `CC(C)C(=O)N1CCN(CCN=CC2=C(O)CC(c3ccco3)CC2=O)CC1` (centres unmarked) stands 14%.
On to `O=C(NC1CC1)C1CCN(C2CCN(C(=O)c3c(F)cccc3Cl)CC2)CC1`, for which the “hERG current change (%, negative = inhibition) at 1uM” value was found to be 12.7%.
Under `Cc1ccccc1C(=O)Oc1ccc(Cl)cc1C(=S)N1CCOCC1` stands 10.1%.
With `CCOc1ccc(NC(=O)N2C[C@H]3C[C@@H](C2)c2cccc(=O)n2C3)cc1`, the “hERG current change (%, negative = inhibition) at 1uM” value is given as 6.17%.
Next, `CCOC(=O)C(=O)Nc1cc(Cl)ccc1C`: 11.4%.
Under `CCOc1ccccc1/C=N/NC(=O)c1nnn(-c2nonc2N)c1CN1CCC(C)CC1` stands 6.06%; under `CC(C)NC(=O)CC(=O)N/N=C/c1ccc(F)cc1`, 3.56%; under `O=C(Cc1ccc([N+](=O)[O-])cc1)Nc1ccc2c(c1)OCO2`, 6.1%.
Under `COc1ccc(Oc2ccc(/C=C/C(=O)c3cccc(OC)c3)cc2[N+](=O)[O-])cc1` stands -5.81%; under `Cc1nn(-c2ccc(F)cc2)c(C)c1/C=C/C(=O)N1CCNC(=O)C1`, 12.4%.
Take `COC(=O)C(Cc1ccc(O)cc1)NC(=O)CCNC(=O)c1ccco1` (centres unmarked): the “hERG current change (%, negative = inhibition) at 1uM” value was found to be 15.5%.
Under `Cc1ccc(C)c(OCC(=O)Nc2ccc3c(c2)OCO3)c1` stands 7.33%; under `Cn1nnnc1SCc1ccc(CSc2nnnn2C)cc1`, 12%; under `Cc1ccc(-n2c(C)cc(C(=O)COC(=O)C3=NNC(=O)CC3)c2C)cc1`, -41.2%.
Under `O=C(NC1CCN(Cc2ccccc2)CC1)c1ccc(Cl)cc1Cl` stands -22.7%; under `CCOC(=O)NC1(NCc2ccccc2)Oc2ccccc2O1`, 8.63%.
Turning to `Cc1ccnc(NC(=O)CCC(=O)N(CC(=O)NCCc2ccccc2)Cc2cccs2)c1`, the “hERG current change (%, negative = inhibition) at 1uM” value came to 15.2%.
Under `C=CCNC(=S)NNC(=O)c1ccccc1` stands 11.6%; under `CC1=Nn2c(nnc2-c2ccco2)SC1`, 7.27%.
Under `Fc1cccc(NCc2ccoc2)c1` stands 1.53%; under `COC(=O)c1cnc(SCC(=O)c2ccccc2)n1C`, 11.1%; under `O=C(N/N=C/c1ccc[nH]1)c1ccc([N+](=O)[O-])cc1`, 10.3%.
With `Oc1c(C(c2cccs2)N2CCN(c3ccccc3)CC2)ccc2cccnc12` (centres unmarked), the “hERG current change (%, negative = inhibition) at 1uM” value is 8.1%.
Next, `FC(F)(F)Oc1ccc(NC(=S)Nc2ccc(OC(F)(F)F)cc2)cc1`: 11.8%; `O=C1C(Cc2ccc(Br)cc2)SC(=Nc2ccccc2)N1c1ccccc1` (centres unmarked): 5.1%.
Next, `N#Cc1cccc(NC(=O)CN2C(=O)NC3(CCCCCC3)C2=O)c1`: 9.73%.
Next, `CCOc1cc(N2CCOCC2)c(OCC)cc1NC(=O)Cn1nc(C)c([N+](=O)[O-])c1C`: 6.15%.
Turning to `O=c1[nH]c2ccc(S(=O)(=O)N3CCCC3)cc2[nH]1`, the “hERG current change (%, negative = inhibition) at 1uM” value is 17.2%.
Under `CCC(CC)c1nnc(NC(=O)CCS(=O)(=O)Cc2ccccc2)s1` stands 18.4%; under `COC(=O)C(Cc1ccc(O)cc1)NC(=O)NC12CC3CC(CC(C3)C1)C2` (centres unmarked), 10.4%.
Under `CC(C)NC(=O)C1c2ccccc2Oc2ccccc21` stands 9.11%.
Under `COC(=O)C(C(=O)OC)c1ncccc1[N+](=O)[O-]` stands 5.36%.
